# Where two headings read alike, the source gives them in different places. Some entries of the source have several records that differ or are many. The other results are left out here. An entry can have further records. The records of an entry read as repeated measurements (runs, samples, wells or individuals).
# System: locally advanced or metastatic NSCLC harboring c-MET overexpression or MET exon 14 skipping mutation
# Assay type: in vivo, human
# Procedure: Patients enrolled in this study were divided into two parts. […] Patients with pre-existing c-MET overexpression at hospital diagnosis were also included in Part A. In Part B, patients in the 400 mg bis in die (BID) dose cohort, blood and tissue samples were collected to perform NGS to determine the MET exon 14 skipping mutation. Patients harboring pre-existing MET exon 14 skipping mutation at hospital diagnosis were also enrolled into Part B. […] Statistical analyses were performed using SAS version 9.4 (SAS Institute, Cary, NC, USA). Age was expressed as median (range), and categorical variables were expressed as frequency (percentage). The 95% CIs of ORR and DCR were calculated using Clopper-Pearson method. […] No imputation method was performed for missing data.
smiles,measurement,setting,value
O=C(Nc1ccc(Oc2ccnc3c2CCN3)c(F)c1)c1c[nH]cc(-c2ccc(F)cc2)c1=O,"OS, median (95% CI)",300 mg QD (n=12),"NE (4.0, NE) [table] and NE (95% CI 4.0 months–NE) [text]"
same,"OS, median (95% CI)",600 mg QD (n=10),"NE (2.6, NE) [table] and NE (95% CI 2.6 months–NE) [text]"

# Source: paper PMC10088252
